Out of some 310,000 compounds screened, about 14,000 (4.5%) showed an effect of 50% or more. The effect is printed as a negative number. The list shows a part of the results.
The compounds below were run against human ether-à-go-go-related gene (hERG) potassium channel (human, UniProt Q12809) (assay: primary screen, population patch clamp on CHO cells stably expressing hERG).
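Note: peak tail current of the secondary pulse compared with the same well before compound.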

human ether-à-go-go-related gene (hERG) potassium channel, sequence (Q12809 whole entry, looked up): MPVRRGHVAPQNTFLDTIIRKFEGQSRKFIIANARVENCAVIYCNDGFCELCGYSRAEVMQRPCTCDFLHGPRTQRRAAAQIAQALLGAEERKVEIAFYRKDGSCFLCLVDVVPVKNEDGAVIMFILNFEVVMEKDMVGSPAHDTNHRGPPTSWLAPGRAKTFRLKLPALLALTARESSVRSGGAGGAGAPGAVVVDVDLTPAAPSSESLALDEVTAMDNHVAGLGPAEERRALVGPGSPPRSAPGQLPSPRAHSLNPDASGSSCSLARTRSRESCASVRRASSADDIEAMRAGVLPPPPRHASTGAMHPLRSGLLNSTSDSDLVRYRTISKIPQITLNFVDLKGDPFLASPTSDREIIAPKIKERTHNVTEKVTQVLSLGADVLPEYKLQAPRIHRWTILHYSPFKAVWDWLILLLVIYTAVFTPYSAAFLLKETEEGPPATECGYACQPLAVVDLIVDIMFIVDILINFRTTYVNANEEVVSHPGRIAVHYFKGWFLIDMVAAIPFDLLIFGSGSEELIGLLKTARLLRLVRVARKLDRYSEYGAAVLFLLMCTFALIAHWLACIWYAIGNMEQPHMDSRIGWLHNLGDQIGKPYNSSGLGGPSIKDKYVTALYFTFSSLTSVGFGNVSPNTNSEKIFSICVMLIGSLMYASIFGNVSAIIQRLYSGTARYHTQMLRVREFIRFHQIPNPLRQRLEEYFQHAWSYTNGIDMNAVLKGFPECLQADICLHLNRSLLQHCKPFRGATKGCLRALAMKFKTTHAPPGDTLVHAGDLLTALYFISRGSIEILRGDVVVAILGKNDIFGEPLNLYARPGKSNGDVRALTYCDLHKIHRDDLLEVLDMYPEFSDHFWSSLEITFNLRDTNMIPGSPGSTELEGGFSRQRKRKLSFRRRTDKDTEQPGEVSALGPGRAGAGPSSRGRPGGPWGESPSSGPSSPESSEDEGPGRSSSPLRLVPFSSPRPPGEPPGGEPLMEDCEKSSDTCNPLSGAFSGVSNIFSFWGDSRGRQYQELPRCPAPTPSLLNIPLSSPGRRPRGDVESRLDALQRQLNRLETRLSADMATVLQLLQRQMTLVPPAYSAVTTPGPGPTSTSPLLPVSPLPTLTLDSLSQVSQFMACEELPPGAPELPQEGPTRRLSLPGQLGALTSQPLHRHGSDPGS

Structure (SMILES)	hERG current change (%, negative = inhibition) at 10uM [%]
COC(=O)c1ccc(COc2ccccc2/C=N/NS(=O)(=O)c2ccc(C)cc2)cc1	11.5
CCCCOc1ccccc1NC(=O)c1ccc(=O)[nH]c1	1.28
N#CC1=C(SCc2ccc(C#N)cc2)N=C(N)C(c2nc(-c3ccccc3)cs2)C12CCCCC2 (stereo not shown)	12.3
CCOc1ccc(CCNC(=O)c2ccc3c(=O)n4c(nc3c2)CCCCC4)cc1	-16.3
CCc1ccc(NC(=S)Nc2cccc3cnccc23)cc1	-15
Cc1c(O)ccc(/C=N/Nc2nc(-c3cccnc3)nc3ccccc23)c1O	11.1
COc1ccccc1C(=O)Nc1nsc(-c2ccccc2)n1	-49.9
CC(C)NC(=O)c1c(O)c2ccccc2[nH]c1=O	-4.36
Cc1ccsc1C(=O)C1CCCN(Cc2ccccc2O)C1 (stereo not shown)	-48.1
O=C1CC(c2ccccc2)CC(O)=C1C=NCc1ccccc1Cl (stereo not shown)	-4.3
CCc1nc(SCc2ccc(C(=O)OC)o2)n[nH]1	8.22
COC(=O)c1ccccc1S(=O)(=O)NNC(=O)Nc1ccccc1	23.1
CCCn1c(N)c(C(=O)CSc2ncc(C(F)(F)F)cc2Cl)c(=O)[nH]c1=O	11
Cc1cc(NC(=O)c2ccccc2Cl)no1	19.9
CCN(CC)c1nc(Nc2ccccc2)nc(Oc2ccc(=O)n(C)n2)n1	4.88
Cc1c(N2C(=O)/C(=C\c3cccc4ccccc34)SC2=S)c(=O)n(-c2ccccc2)n1C	-2.86
COc1cc(-c2nnn(CC(=O)NC3CCS(=O)(=O)C3)n2)ccc1OCc1ccccc1 (stereo not shown)	-1.41
COc1ccc(COCC(O)CN2CC(C)OC(C)C2)cc1OC.Cl (stereo not shown)	11.2
COc1ccc(CCNC(=O)CCN2C(=O)[C@@H]3Cc4ccccc4CN3C2=O)cc1	-28.3
O=C(CN(Cc1cccs1)C(=O)CSc1nnc(COc2ccccc2)o1)NC1CCCC1	-5.54
O=S(=O)(c1ccc(C(F)(F)F)cc1)N1CCCN(c2ccc(C(F)(F)F)cn2)CC1	5.3
COC(=O)C1CCN(C(=O)COC(=O)C2CCN(S(=O)(=O)c3ccc(C)c(C)c3)CC2)CC1	4.25

Structure (SMILES)	hERG current change (%, negative = inhibition) at 10uM [%]
Cc1oc(-c2ccccc2F)nc1CSCC(=O)NCc1ccc2c(c1)OCO2	-32
COc1ccc(CN2C(=NC(=O)C3CC3)SC3CS(=O)(=O)CC32)cc1OC (stereo not shown)	0.94
O=C1CC(c2cccc(O)c2)Oc2ccccc21 (stereo not shown)	0.458
CCSc1nsc(NC(=O)Nc2cccc(OC)c2)n1	-8.43
COc1ccc(C2=C(c3ccc([N+](=O)[O-])cc3)C(=O)OC2)cc1	-6.76
Nc1nc(SCC(=O)NCCCO)nc2sc3c(c12)CCC3	-3.17
O=C(Cc1ccccc1[N+](=O)[O-])Nc1cccc(S(=O)(=O)NC2=NCCCCC2)c1	6.24
Cc1ccccc1CN(CC1CCC(C(=O)O)CC1)C(=S)Nc1ccccc1F (stereo not shown)	9.84
Cc1ccccc1OCCC(=O)Nc1cc(S(=O)(=O)N2CCOCC2)ccc1OC(C)C	-12.5
Cn1c(CN2CCCC2)nc2cc(NC(=O)COc3ccccc3)ccc21	-34.1
C=CCn1c(C)cc(C(=O)COC(=O)/C=C/c2cccc(OC)c2)c1C	4.96
CN(C(=O)c1ccoc1)c1ccc2ccccc2c1	-10.5
COc1ccc(-n2c(=S)[nH]c3[nH]ncc3c2=O)cc1	11.3
CCCOc1ccc(C(=O)NCC(C)(C)N2CCOCC2)cc1	-29.8
CCOC(=O)C1(Cc2ccc(Cl)cc2)CCN(C(=O)C2CCCO2)CC1 (stereo not shown)	-33.2
Nc1n[nH]c(CO)n1.O=C(O)CO	18.2
O=c1c2ccccc2nc(/C=C/c2ccc(F)cc2)n1-c1ccccn1	7.41
O=C(/C=C/c1ccccc1)NCC1(c2ccccc2)CCOCC1	-9.11
c1nnnn1C12CC3CC(CC(C3)C1)C2	9.79
COc1ccc2[nH]c(C(=O)O)c(NS(=O)(=O)c3ccc(C)cc3C)c2c1	10.8
COc1ccc(CCNC(=O)C(CCC(N)=O)NS(=O)(=O)c2ccc(Cl)cc2)cc1OC (stereo not shown)	23.6
CCCCCCCCCC[N+](C)(C)CC/C=C1/c2ccccc2Sc2ccc(Cl)cc21.[Br-]	-76.6

Structure (SMILES)	hERG current change (%, negative = inhibition) at 10uM [%]
O=C1c2cc([N+](=O)[O-])ccc2-c2ncccc21	-4.54
CCOC(=O)c1ccc(N2CN(CC)CNC2=S)cc1	7.25
COC(=O)c1sc(S(=O)(=O)Nc2ccc(Br)cc2)c(C(=O)OC)c1C	2.75
CC(C)(C)OC(=O)C(C)(C)Sc1nnc(N)s1	5.38
CN(C)S(=O)(=O)c1cccc(NC(=O)CCCc2nc3ccccc3c(=O)[nH]2)c1	4.07
O=C(CNC1CCCCC1)Nc1cc(S(=O)(=O)N2CCOCC2)ccc1Cl	-2.18
O=C(Nc1ccc(F)cc1)c1sccc1SCc1cccc(C(F)(F)F)c1	-5.32
Cc1cc(C)c2cc(CN(CCN3CCCC3)C(=O)Nc3ccc(F)cc3)c(=O)[nH]c2c1	-74.4
c1ccc(C2=Nn3c(nnc3-c3ccncc3)SC2)cc1	-3.67
COc1ccc2c(c1)-c1ccccc1S(=O)(=O)N2C(C)=O	-5.35
CC(=O)c1cc(Cl)ccc1OCc1cccc(S(=O)(=O)N2CCOCC2)c1	-68.9
Cc1cc(Nc2ccccc2)n(C(=O)c2ccc(Cl)cc2)n1	17.4
CCOc1ccc(CSCCNC(=S)Nc2ccc(OC)cc2)cc1	0.191
COc1ccc(Nc2ccc(N3C(=O)CCCC3=O)cc2[N+](=O)[O-])c(OC)c1	-1.83
CCOC(=O)C1CCN(C(=O)CCn2c(=O)c3cccn3c3cccnc32)CC1	-33.2
CN(C)CCSc1nnc2sc3ccccc3n12	-12.1
Cc1cc(C)nc(SCNC(=O)c2ccccc2)n1	7.08
CCCNC(=O)COc1coc(CN2CCN(C(=O)c3ccco3)CC2)cc1=O	3.56
O=C(c1cc(-c2cccc(Br)c2)nc2ccccc12)N1CCCC1	-18.1
N#Cc1cnn2c(N)c(-c3ccc(Cl)cc3)cnc12	16.4
CN(CC(=O)Nc1ccc(F)cc1)C(=O)c1cc(-c2ccco2)nc2ccccc12	-32.5
O=C(CCN1CCN(S(=O)(=O)c2ccc(Cl)cc2)CC1)Nc1ccccc1F	-6.18

Structure (SMILES)	hERG current change (%, negative = inhibition) at 10uM [%]
O=C(CN1CCN(c2ccccn2)CC1)Nc1ccc(Cl)c(C(F)(F)F)c1	-7.97
Cc1ccc(CNC(=O)c2ccc(N3CCC4(CC3)CC(c3cccc(Br)c3)=NO4)c([N+](=O)[O-])c2)cc1	24.3
CS(=O)(=O)c1cccc(C(=O)OCC(=O)Nc2ccc3c(c2)OCO3)c1	-1.71
CC1CCN(CCCNC(=O)C2CCN(S(=O)(=O)N3CCC4(CC3)OCCO4)CC2)CC1	16.6
OC(COCC(F)(F)C(F)(F)C(F)(F)C(F)F)Cn1c2ccccc2c2ccccc21 (stereo not shown)	-14.4
CN(C)C(=O)C(=O)c1c(-c2ccccc2)cc2ccccn12	4.87
Cc1cccc2cc3c(N)c(C#N)sc3nc12	21.5
O=C(O)CCC(=O)NNC(=O)c1cccc(Cl)c1	8.99
CCC1=C(OC(=O)N(CC)CC)N2C(=O)OC(=NCc3ccccc3)[C@]2(C)[C@H]2C1=CC[C@H]1C(=O)N(c3ccccc3)C(=O)[C@H]12	-34.3
COc1ccc(-c2cn3cccnc3n2)cc1NC(=O)CC(C)C	6.53
C=CCn1c(SCC(=O)Nc2ncc(Cc3ccc(C)c(Cl)c3)s2)nnc1-c1ccncc1	-1.27
CCN(C(=O)COC(=O)Cn1c(C)csc1=O)c1c(N)n(Cc2ccccc2)c(=O)[nH]c1=O	-2.69
COc1ccc(N(CC(=O)N2CCN(C)CC2)S(=O)(=O)c2cc(C)ccc2OC)cc1Cl	-60.3
Cc1ccc(NC(=S)NCc2ccccc2)cc1C	11
CCCCn1c(SCC(=O)Nc2cc(C(F)(F)F)ccc2Cl)nnc1C(CC)N(C)C (stereo not shown)	-19.1
COc1ccc(S(=O)(=O)NCCC(=O)Nc2ccc(C)cc2)cc1	0.527
O=S1(=O)C[C@@H](O)[C@@H](Nc2ccc(Cl)cc2)C1	7.07
CC(C)(C)N(Cc1ccccc1)C(=O)COC(=O)/C=C/c1ccc2c(c1)OCO2	-7.85
CCC(C)C(=O)N[C@@H](c1ccccc1)[C@@H](O)C(=O)O[C@H]1C[C@@]2(O)[C@@H](OC(=O)c3ccccc3)C3[C@](C)(C(=O)[C@H](OC(C)=O)C(=C1C)C2(C)C)[C@@H](O)C[C@H]1OC[C@@]31OC(C)=O (stereo partly shown)	1.3

Source: paper PMC4336329 (PLoS ONE, 2015)
